This is an account of results in the supplement of paper PMC4723716.

± gives the uncertainty stated by the source. In all, about 9,900 compounds were measured (“viability index relative to DMSO control”: median about 1, lowest 2% from about 0.85 on). The list shows a part of the results.

The subject of this assay is Plasmodium falciparum NF54 stage V gametocytes. The assay can be described thus: viability index relative to DMSO control (fraction); higher = less gametocyte killing. The note with it: 2.5 µM, incubation time: 72 h. The procedure, abridged:
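P. falciparum NF54 stage V gametocytes in serum-free screening medium (0.75% gametocytemia, 1.25% hematocrit, 10 µl) were incubated with compound at 2.5 µM in 1,536-well plates for 72 hr at 37°C under low oxygen. Then 3 µl of 2.5 µM MitoTracker Red CMXRos plus 0.13% saponin was added for one to two hours. One field per well was imaged, 20–70 µm2 red particles were counted, and the viability index was the count divided by the plate mean of DMSO wells.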

Setting [1] is: library set: Broad Institute DOS.

In the case of `CC(C)CC#Cc1ccc([C@@H]2[C@H](CO)N3C(=O)CN(C(=O)c4ccccn4)C[C@@H]23)cc1`, under setting [1], the viability index amounted to 1.1 ± 0.012. With `N#C[C@@H]1[C@H](c2ccc(C3=CCCCC3)cc2)[C@H](CO)N1C(=O)CN1CCOCC1`, the viability index under setting [1] worked out at 1.14 ± 0.046. Turning to `CCS(=O)(=O)Nc1ccc2c(c1)C(=O)N(C)[C@@H]1CC[C@H](CC(=O)NCCCN3CCOCC3)O[C@H]1CO2`, under setting [1], the viability index stood at 1.11 ± 0.11.

Molecule `N#C[C@H]1[C@@H](c2ccccc2C2=CCCC2)[C@@H](CO)N1C(=O)C1CCOCC1` gave a viability index under setting [1] of 0.99 ± 0.092.

In the case of `COc1ccc2c3c([C@@H](CO)N(C[C@]33CN(C)C3)C(=O)C3CCOCC3)n(C)c2c1`, the viability index under setting [1] was 0.95 ± 0.12. Under setting [1], `COc1ccc(C(=O)Nc2ccc3c(c2)C(=O)N(C)[C@@H]2CC[C@H](CC(=O)NCC4CC4)O[C@H]2CO3)cc1` showed a viability index of 0.937 ± 0.013. Still for that read-out and setting: the result for `C[C@H]1CN([C@@H](C)CO)S(=O)(=O)c2ccc(-c3ccc(F)cc3)cc2O[C@H]1CN(C)Cc1ccccc1C(=O)O` reads 0.942 ± 0.079; that for `CN1CCN(C(=O)C[C@H]2CC[C@@H]3[C@H](COc4ccc(NC(=O)c5cccs5)cc4C(=O)N3C)O2)CC1`, 1.03 ± 0.034. For the molecule `C[C@H]1CCCCO[C@H](CN(C)Cc2ccncc2)[C@@H](C)CN([C@@H](C)CO)C(=O)c2cc(NS(=O)(=O)c3ccc(Cl)cc3)ccc2O1`, the viability index under setting [1] was determined as 1.092 ± 0.0011. Take `COCC#Cc1ccc([C@H]2[C@@H](CO)N3C(=O)CN(C(=O)CN4CCOCC4)C[C@@H]23)cc1`: the viability index under setting [1] came out at 1.09 ± 0.047. In the case of `COc1ccc(S(=O)(=O)Nc2ccc3c(c2)C(=O)N([C@H](C)CO)C[C@H](C)[C@H](CN(C)S(=O)(=O)c2ccc(Cl)cc2)OCCCC[C@@H](C)O3)cc1`, under setting [1], the viability index turned out to be 1.08 ± 0.058. On the same count and under the same terms, in the case of `O=C(C[C@@H]1C=C[C@H](NS(=O)(=O)c2ccccc2)[C@H](CO)O1)NCCN1CCCCC1` it was 1.15 ± 0.1.

In turn, `COc1cccc(S(=O)(=O)N2CCCCN3[C@H](C2)[C@H](c2ccc(C#CCC(C)C)cc2)[C@@H]3CO)c1` gave a viability index under setting [1] of 0.9833 ± 0.0041. Same read-out and setting: the result for `C[C@H](CO)N1C[C@H](C)[C@H](CN(C)CC2CCCCC2)OCc2cnnn2CCCC1=O` reads 1.02 ± 0.075; that for `C[C@@H]1CN([C@@H](C)CO)C(=O)c2cccc(NC(=O)Nc3ccc4c(c3)OCO4)c2O[C@H]1CN(C)S(C)(=O)=O`, 0.946 ± 0.15; that for `COCC(=O)N1C[C@@]2(C1)CN(Cc1nccs1)[C@H](CO)c1c2c2ccc(OC)cc2n1C`, 1.03 ± 0.097. Still for that read-out and setting: the result for `O=C1CNC[C@H]2[C@H](c3ccc(C4=CCCC4)cc3)[C@@H](CO)N12` reads 0.995 ± 0.044. For the molecule `C[C@@H]1CN([C@@H](C)CO)C(=O)c2cccc(NC(=O)c3ccc(-c4nccs4)cc3)c2O[C@@H]1CN(C)C(=O)Nc1cccc2ccccc12`, where the note is “library set: Broad Institute Blood Stage”, the viability index turned out to be 0.784 ± 0.023.

With `Cn1cnc(S(=O)(=O)N2C[C@@H](O)COC[C@H]3O[C@H](CC(=O)NCc4cccc(F)c4)CC[C@@H]32)c1`, under setting [1], the viability index turned out to be 1.02 ± 0.084. Under setting [1], `O=C(C[C@@H]1CC[C@H](NS(=O)(=O)c2ccc(F)cc2)[C@@H](CO)O1)N1CCN(c2ccccc2)CC1` returned a viability index of 1.17 ± 0.12. On the same count and under the same terms, the result for `Cc1noc(C)c1NC(=O)N(C)C[C@H]1OCc2cnnn2CCCC(=O)N([C@@H](C)CO)C[C@H]1C` reads 0.968 ± 0.061; that for `C[C@H]1CN([C@@H](C)CO)C(=O)c2cc(-c3cccc(C(=O)N(C)C)c3)cnc2O[C@@H]1CN(C)C(=O)Cc1ccccn1`, 1.09 ± 0.015; that for `CO[C@@H]1CN(C)C(=O)c2cc(NC(C)=O)ccc2OC[C@H](C)N(C(=O)Cc2ccccn2)C[C@@H]1C`, 1.081 ± 0.0086. Molecule `CN(C)C(=O)c1ccc(-c2ccc([C@H]3[C@@H](C#N)N[C@@H]3CO)cc2)cc1` displayed a viability index under setting [1] of 1.01 ± 0.22. Under setting [1], `COCC(=O)N1C[C@]2(CN(Cc3ccc(Cl)cc3)C2)c2c([nH]c3cc(OC)ccc23)[C@H]1CO` returned a viability index of 1.01 ± 0.053. `Cc1noc(C)c1NC(=O)Nc1ccc2c(c1)C(=O)N([C@@H](C)CO)C[C@H](C)[C@@H](CN(C)Cc1ccc3c(c1)OCO3)OCCCC[C@H](C)O2` yielded a viability index under setting [1] of 1.016 ± 0.0049. The molecule `O=C(N[C@H]1CC[C@@H](CCn2cc(-c3ccccc3F)nn2)O[C@H]1CO)c1ccc2c(c1)OCO2` showed a viability index under setting [1] of 1.1 ± 0.06. With `Cc1noc(C)c1S(=O)(=O)Nc1ccc2c(c1)C(=O)N([C@@H](C)CO)C[C@@H](C)[C@@H](CN(C)C(=O)NC1CCCCC1)O2`, the viability index under setting [1] amounted to 1.097 ± 0.0047. With `C/C=C/c1ccc([C@H]2[C@@H](CO)N3C(=O)CN(S(=O)(=O)c4ccccc4)C[C@@H]23)cc1`, under setting [1], the viability index amounted to 1.03 ± 0.031. As to `CCC(=O)N1[C@H](CO)[C@@H]2c3ccccc3N(C(=O)c3cnccn3)C[C@@H]21`, the viability index under setting [1] came to 0.908 ± 0.3. In turn, `Cc1cccc(S(=O)(=O)N2C[C@H]3[C@@H](c4ccccc42)[C@H](CO)N3CC2CCCC2)c1` had a viability index under setting [1] of 0.994 ± 0.055. For `Cc1ccc(S(=O)(=O)NCC[C@H]2CC[C@H](NC(=O)c3cccnc3)[C@@H](CO)O2)cc1`, the viability index under setting [1] came out at 1.1 ± 0.066. Under setting [1], `COc1ccc(-c2cn(CC[C@H]3CC[C@H](NC(=O)c4cnccn4)[C@H](CO)O3)nn2)cc1` gave a viability index of 1.13 ± 0.053. Same read-out and setting: the result for `O=C(CN1CCOCC1)N1CCCCN2[C@@H](CO)[C@@H](c3ccc(Br)cc3)[C@@H]2C1` reads 0.986 ± 0.061; that for `O=C(C1CCC1)N1CC(=O)N2[C@@H](CO)[C@H](c3ccc(Br)cc3)[C@@H]2C1`, 0.978 ± 0.019.
